According to US20260217645A1, “AMINO LIPID COMPOUND, AND PREPARATION METHOD THEREFOR AND USE THEREOF” (SHENZHEN SHENXIN BIOTECHNOLOGY CO., LTD., priority 2023, published 2026):
The name of at least one read-out is uncertain.

These compounds were tested on Female BALB/c mice (assay: In vivo delivery of Fluc mRNA-encapsulating lipid nanoparticles (IVIS luciferase imaging)). Settings: Fluc mRNA LNP, tail vein injection (IV), volume injected 70 μL, 6 hours after injection.

Structure (SMILES) | Average number of photons (Liver) [p/s/cm^2/sr] | Average number of photons (Spleen) [p/s/cm^2/sr] | Average number of photons (Total in-vivo flux) [p/s/cm^2/sr]
CCCCCCOC(CCCOC(=O)CCCCCCCCC(CCCCCCCCC(=O)OCCCC(OCCCCCC)OCCCCCC)OC(=O)CCCN(C)CCCNc1c(NC)c(=O)c1=O)OCCCCCC [compound 1640] | 2.40E+07 | 6.15E+06 | 8.16E+07
CCCCCCOC(CCCOC(=O)CCCCCCCCC(CCCCCCCCC(=O)OCCCC(OCCCCCC)OCCCCCC)N(C)CCCCNc1c(NC)c(=O)c1=O)OCCCCCC [compound 1643] | 1.17E+08 | 1.90E+07 | 4.20E+08
CCCCCCCCCCOC(=O)CCCCCCCCC(CCCCCCCCC(=O)OCCCC(OCCCCCC)OCCCCCC)N(C)CCCNc1c(NC)c(=O)c1=O (stereo not drawn) [compound 1644] | 9.97E+07 | 7.42E+06 | 5.82E+08
CCCCCCCCOC(=O)CCCCCCCN(CCCCCCCC(=O)OC(CCCCCCCC)CCCCCCCC)CCCNC(=O)CCNc1c(NC)c(=O)c1=O [compound 1720] | 3.23E+06 | 2.06E+06 | 1.61E+07
CCCCCCCCOC(=O)CCCCCCCN(CCCCCCCC(=O)OC(CCCCCCCC)CCCCCCCC)CCCCNC(=O)CCNc1c(NC)c(=O)c1=O [compound 1721] | 3.48E+06 | 1.75E+06 | 1.69E+07
CCCCCCCCC(CCCCCCCC)OC(=O)CCCCCCCN(CCCCCCCC(=O)OCCCCCCC)CCCNC(=O)CCNc1c(NC)c(=O)c1=O [compound 1726] | 3.81E+06 | 5.12E+06 | 1.83E+07
CCCCCCCCC(CCCCCCCC)OC(=O)CCCCCCCN(CCCCCCCC(=O)OCCCCCCC)CCCCNC(=O)CCNc1c(NC)c(=O)c1=O [compound 1727] | 2.48E+06 | 1.15E+06 | 1.04E+07
CCCCCCCOC(CCCOCCCCCCCCN(CCCCCCCC(=O)OCCCC(OCCCCCCC)OCCCCCCC)CCCNc1c(NC)c(=O)c1=O)OCCCCCCC [compound 1746] | 1.34E+08 | 5.37E+06 | 6.99E+08
CCCCCCCOC(CCCOCCCCCCCCN(CCCCCCCCOCCCC(OCCCCCCC)OCCCCCCC)CCCNc1c(NC)c(=O)c1=O)OCCCCCCC [compound 1747] | 1.93E+08 | 3.56E+06 | 5.83E+08
CCCCCCCOC(CCCNC(=O)CCCCCCCN(CCCCCCCC(=O)OCCCC(OCCCCCCC)OCCCCCCC)CCCNc1c(NC)c(=O)c1=O)OCCCCCCC [compound 1748] | 6.51E+06 | 6.89E+06 | 2.09E+07
CCCCCCCOC(CCCNC(=O)CCCCCCCN(CCCCCCCC(=O)NCCCC(OCCCCCCC)OCCCCCCC)CCCNc1c(NC)c(=O)c1=O)OCCCCCCC [compound 1749] | 2.53E+06 | 6.42E+05 | 1.04E+07
